{"source": "patent US12662541B2", "about": "“Antibody-drug conjugates against the receptor tyrosine kinase EphA5” (Rutgers, The State University of New Jersey, priority 2021, dated 2026)", "key": {"rhEphA5 antigen [1]": {"molecular_target": "T1, rhEphA5 antigen (Homo sapiens, UniProt P54756)", "T1 construct": "purchased R and D systems 3036-A5", "assay": "Multi-cycle kinetic analysis (Biacore T200) of purified antibodies", "format": "binding", "procedure": "In order to assess the binding of the six lead humanized variants to rhEphA5 antigen, multi-cycle kinetic analysis (FIG. 68) was performed on purified material. Kinetic experiments were performed at 25° C. on a Biacore T200 running Biacore T200 Control software V2.0.1 and Evaluation software V3.0 (GE Healthcare, Uppsala, Sweden).\nHBS-P+ (GE Healthcare, Uppsala, Sweden), supplemented with 1% BSA w/v (Sigma, Dorset, UK) was used as running buffer as well as for ligand and analyte dilutions. Purified lead antibodies were diluted to 0.5 μg/mL in running buffer and at the start of each cycle, loaded onto Fc2, Fc3 and Fc4 of an anti-human IgG CMS sensor chip (GE Healthcare, Little Chalfont, UK). Antibodies were captured at a flow rate of 10 μl/min to give an immobilization level (RL) of 50 RU. The surface was then allowed to stabilize.\nMulti-cycle kinetic data was obtained using recombinant EphA5 as the analytes injected at a flow rate of 30 μl/min to minimize any potential mass transfer effects. A five point, three-fold dilution range from 1.11 nM to 270 nM of EphA5 was prepared in running buffer. For each concentration, the association phases were monitored for 210 seconds and the dissociation phase was measured for 900 seconds. Regeneration of the sensor chip surface was conducted between cycles using two injections of 3 M MgCl2. […]"}, "rhEphA5 antigen [2]": {"molecular_target": "T1, rhEphA5 antigen", "assay": "kd (1/s)", "procedure": "Table printed on a drawing sheet, FIG. 13\nHead of the field: kd (1/s)\nThe patent's description of the figure: FIG. 13 is a table illustrating the single cycle kinetic parameters of chimeric (VH0/VK0) and humanized 11C12 variants (tested as cell culture supernatants) binding to rhEphA5 antigen as determined using the Biacore T200. The relative KD was calculated by dividing the KD of the humanized variant by that of the VH0/VK0 (top row) assayed in the same experiment. The variants marked with ‘*’ have KD values that are within two-fold of, or are better than, the chimeric antibody. The chimeric and selected variants marked in ‘#’ were identified as the main leads for purification. […]\nWhere the first naming reader finds the target: description_of_the_figure: humanized 11C12 variants (tested as cell culture supernatants) binding to rhEphA5 antigen as determined using the Biacore T200"}, "[3]": {"assay": "Thermal ramp stability (UNcle biostability platform, Sypro Orange and SLS)", "format": "physicochemical", "from_the_text": "Thermal ramp stability experiments (Tm and Tagg) are well established methods for ranking proteins and formulations for stability. A protein's denaturation profile provides information about its thermal stability and represents a structural ‘fingerprint’ for assessing structural and formulation buffer modifications. A widely used measure of the thermal structural stability of a protein is the temperature at which it unfolds from the native state to a denatured state. For many proteins, this unfolding process occurs over a narrow temperature range and the mid-point of this transition is termed ‘melting temperature’ or ‘Tm’. To determine the melting temperature of a protein, UNcle measures the fluorescence of Sypro Orange (which binds to exposed hydrophobic regions of proteins) as the protein undergoes conformational changes.\nSamples for each variant were formulated in PBS and Sypro Orange at a final concentration of 1 mg/mL. […] Samples were subjected to a thermal ramp from 25-95° C., with a ramp rate of 0.3° C./minute and excitation at 473 nm. Full emission spectra were collected from 250-720 nm, and the area under the curve between 510-680 nm was used to calculate the inflection points of the transition curves (Tonset and Tm). Monitoring of static light scattering (SLS) at 473 nm allowed the detection of protein aggregation, and Tagg (onset of aggregation) was calculated from the resulting SLS profiles. Thermal stability values determined lie in a broad range from 57.9 to 69.6° C. (Tm1), 55.1 to 65.2° C. (Tonset) and 65.6 to 70.2° C. (Tagg) with the humanized leads generally showing improved profiles when compared to the chimeric antibody. […] All humanized antibodies appear to have a higher Tm1, Tonset and Tagg compared to the chimeric antibody."}, "[4]": {"system": "PDX model TM00226 (LG1179F), lung adenocarcinoma", "assay": "PDX TM00226 efficacy", "format": "in vivo, mice", "procedure": "The present studies were performed using female NSG™ mice implanted with the PDX model TM00226 (LG1179F) purchased from Jackson Laboratories. These mice are extremely immunodeficient and carry two mutations: severe combined immune deficiency (scid) and a complete null allele of the IL2 receptor common gamma chain (IL2rg^null). The scid mutation is a mutation in the DNA repair complex protein Prkdc and renders the mice B and T cell deficient. The IL2rg^null mutation prevents cytokine signaling through multiple receptors, leading to a deficiency in functional NK cells. This severe immunodeficiency allows the implantation of PDX and growth of human tissue-based tumors in the mice. These tumors have similar characteristics to the human tumors from which they are derived (e.g., gene expression) and are predictive of human response to therapeutic agents.\nMice received 5 weekly doses of ADC1 or ADC2 at 10 mg/kg or PBS via tail vein injection. Animals were dosed on days 0, 7, 14, 21 and 28 followed by 3 weeks of observation (day 28-50) without treatment. The number of mice used per group averaged n=7 with some mice presenting with more than 1 tumor implanted subcutaneously. In those cases, each tumor size was measured and recorded independently. Measurements were performed 2-3 times weekly with the aid of a digital caliper (Fisherbrand™ Traceable™ Digital Carbon Fiber Calipers). Studies lasted on average 50 days or until maximum allowed tumor volume was reached and/or skin ulceration was noted. All studies included a control group of an equal number of mice to those in the treatment group. Control groups received PBS tail vein injections and were submitted to the same handling procedures as ADC1 and ADC2 treated mice. First treatment was administered when tumors reached 100-150 mm^3 volume."}, "[5]": {"system": "H460-derived xenograft model of human lung cancer", "assay": "H460 xenograft efficacy", "format": "in vivo, mice", "details": "10 mg/kg every 5 days, 3 doses, n=9"}, "[6]": {"system": "H522-derived Xenograft Model of Human Lung Cancer", "assay": "H522 xenograft efficacy", "format": "in vivo, mice", "details": "for tumor regression: 3 doses"}}, "data": [{"molecule": "VH5/VK3: humanized anti-EphA5 IgG1/kappa antibody, heavy chain SEQ ID NO:39, light chain SEQ ID NO:40 (antibody) heavy: EVQLVESGGGLVQPGGSLKLSCAASGFTFSTFGIHWVRQAPGKGLEWVAYISGASTTIYYADSVKGRFTISRDNSKNTLYLQMNSLRAEDTAVYYCARYGTSFPYGLDYWGQGTLVTVSSASTKGPSVFPLAPSSKSTSGGTAALGCLVKDYFPEPVTVSWNSGALTSGVHTFPAVLQSSGLYSLSSVVTVPSSSLGTQTYICNVNHKPSNTKVDKRV[letters of human IgG1 Fc left out] light: DIVMTQSPDSLAVSLGERATINCKASQSVDYDGDSYMNWYQQKPGKAPKLLIYGASNLESGIPDRFSGSGSGTDFTLTISRLEPEDAAVYYCQQSNEDPFTFGQGTKLEIKRTVAAPSVFIFPPSDEQLKSGTASVVCLLNNFYPREAKVQWKVDNALQSGNSQESVTEQDSKDSTYSLSSTLTLSKADYEKHKVYACEVTHQGLSSPVTKSFNRGEC", "values": [{"measurement": "RMAX", "setting": "rhEphA5 antigen [1]; 1:1 model fit", "value": 35.3}, {"measurement": "kd", "setting": "rhEphA5 antigen [1]; 1:1 model, binding to EphA5", "value": 0.00135, "unit": "s⁻¹"}, {"measurement": "kd", "setting": "rhEphA5 antigen [2]", "value": 0.0014, "unit": "s⁻¹"}, {"measurement": "Average Tonset (° C.)", "setting": "[3]", "value": 63.6, "unit": "°C"}, {"measurement": "Tagg ranking among the leads (SLS profiles)", "setting": "[3]", "value": "highest Tagg values"}, {"measurement": "Tm1, Tonset and Tagg compared to the chimeric antibody VH0/VK0", "setting": "[3]", "value": "VH5/VK3 has a higher Tm1, Tonset and Tagg compared to VH0/VK0."}, {"measurement": "Average Tm1 (° C.)", "setting": "[3]; 1 mg/mL in PBS, ramp 25-95° C.", "value": 69.0, "unit": "°C"}, {"measurement": "Average Tagg 473 (° C.)", "setting": "[3]; SLS at 473 nm", "value": 70.2, "unit": "°C"}]}, {"molecule": "VH5Vk3-ThioBridge®-VCP-MMAE (conjugate) heavy: EVQLVESGGGLVQPGGSLKLSCAASGFTFSTFGIHWVRQAPGKGLEWVAYISGASTTIYYADSVKGRFTISRDNSKNTLYLQMNSLRAEDTAVYYCARYGTSFPYGLDYWGQGTLVTVSSASTKGPSVFPLAPSSKSTSGGTAALGCLVKDYFPEPVTVSWNSGALTSGVHTFPAVLQSSGLYSLSSVVTVPSSSLGTQTYICNVNHKPSNTKVDKRV[letters of human IgG1 Fc left out] light: DIVMTQSPDSLAVSLGERATINCKASQSVDYDGDSYMNWYQQKPGKAPKLLIYGASNLESGIPDRFSGSGSGTDFTLTISRLEPEDAAVYYCQQSNEDPFTFGQGTKLEIKRTVAAPSVFIFPPSDEQLKSGTASVVCLLNNFYPREAKVQWKVDNALQSGNSQESVTEQDSKDSTYSLSSTLTLSKADYEKHKVYACEVTHQGLSSPVTKSFNRGEC", "values": [{"measurement": "tumors remaining at the end of the study", "setting": "[4]", "value": "Seven"}, {"measurement": "tumor response (tumor volume)", "setting": "[4]; 5 weekly doses of 10 mg/kg tail vein, ADC2 = VH5Vk3-ThioBridge®-VCP-(SN-38)2", "value": "sustained regression of tumors"}, {"measurement": "tumors regressed completely", "setting": "[4]; of a total of 8 tumors", "value": 1, "unit": "tumors"}, {"measurement": "tumors with partial regression", "setting": "[5]", "value": 8, "unit": "tumors"}, {"measurement": "time regression was sustained", "setting": "[6]; first study (FIG. 86)", "value": 60, "unit": "days"}, {"measurement": "tumor regression", "setting": "[6]; first study (FIG. 86), group 3 n=10, weekly", "value": "full regression was observed for all tumors of group 3"}, {"measurement": "time regression was sustained", "setting": "[6]; second study (FIG. 88)", "value": 50, "unit": "days"}, {"measurement": "tumor regression", "setting": "[6]; second study (FIG. 88), n=5, weekly", "value": "full regression in all tumors of the experimental group"}]}]}
